Source: PubChem BioAssay AID485360 (National Center for Advancing Translational Sciences (NCATS), 2010)
Out of some 230,000 compounds screened, about 1,500 (0.65%) were called active. The inconclusive results got no clear call from the source; some entries with a clear call stand among them for comparison. Calls come from the whole dose curve; as a rule, active = well fitted inhibition curve with a large enough effect; inconclusive = small, poorly fitted or top-dose-only effect; inactive = no such curve, though single readings can be large or run the other way. Where the call is inconclusive, the potency comes from a doubtful curve fit.

target: Lethal(3)malignant brain tumor-like protein 1 (Homo sapiens) (UniProt Q9Y468); test: qHTS Assay for the Inhibitors of L3MBTL1; conditions: AlphaScreen L3MBTL1–H3K9me1 peptide binding; activity, negative = inhibition: at 57.1 µM (top of the series); note: nearly all actives have a fitted effect of over 60% in size
Summary of the method: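 AlphaScreen proximity signal between nickel-chelate acceptor and streptavidin donor beads (final 10 ug/mL) reports binding of 50 nM L3MBTL1 to 75 nM biotin-H3 K9me1 peptide; complex incubated with compounds 30 min at room temperature; cefsulodin titration as control.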
% is set by controls: 0 for no effect and ±100 for the full control effect; potency is the fitted concentration of half-maximal effect; tags give direction and shape of the fitted curve.

Chain of UniProt Q9Y468 (Q9Y468 whole entry, looked up): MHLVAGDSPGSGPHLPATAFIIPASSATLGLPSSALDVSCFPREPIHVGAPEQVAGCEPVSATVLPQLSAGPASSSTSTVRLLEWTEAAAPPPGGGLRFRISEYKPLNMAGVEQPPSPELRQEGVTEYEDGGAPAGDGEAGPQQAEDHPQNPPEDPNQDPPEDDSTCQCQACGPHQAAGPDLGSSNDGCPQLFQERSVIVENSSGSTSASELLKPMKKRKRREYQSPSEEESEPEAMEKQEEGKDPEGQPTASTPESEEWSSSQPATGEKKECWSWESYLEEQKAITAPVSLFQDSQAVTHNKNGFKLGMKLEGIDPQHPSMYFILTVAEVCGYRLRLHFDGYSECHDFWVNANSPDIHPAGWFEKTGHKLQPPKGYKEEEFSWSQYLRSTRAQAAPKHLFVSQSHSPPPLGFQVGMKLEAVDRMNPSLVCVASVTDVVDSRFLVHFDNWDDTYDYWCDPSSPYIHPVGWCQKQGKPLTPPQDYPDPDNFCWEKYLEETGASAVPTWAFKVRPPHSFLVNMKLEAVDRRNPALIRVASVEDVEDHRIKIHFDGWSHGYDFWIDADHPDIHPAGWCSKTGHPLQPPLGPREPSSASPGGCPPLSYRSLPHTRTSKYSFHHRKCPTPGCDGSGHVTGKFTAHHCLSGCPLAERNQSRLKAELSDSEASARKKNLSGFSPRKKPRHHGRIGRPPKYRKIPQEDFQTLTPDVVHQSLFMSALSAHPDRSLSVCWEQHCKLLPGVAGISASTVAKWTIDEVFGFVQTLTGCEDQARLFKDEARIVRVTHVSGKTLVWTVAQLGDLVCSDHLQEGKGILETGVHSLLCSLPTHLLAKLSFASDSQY

Compound	activity, negative = inhibition	Potency
Cc1ccc(C(C)C)c(OCCNCCc2ccccc2)c1	inactive: -9.79%	–
Cc1ccccc1C(=O)NC(CC(C)C)C(=O)NN1C(=O)c2ccccc2C1=O (configuration not stated)	inactive: 2.57% [at 11.4 µM]	–
CN(C)c1ccc(C2C3CCCc4ccccc4C3=NN2C)cc1 (configuration not stated)	–	inconclusive: 3.16 µM [inhibitor, full curve, poor fit]
Cc1ccc(S(=O)(=O)N2CCOCC2)cc1NC(=O)CN1C(=O)CN(C)C1=O	–	inconclusive: 7.94 µM [inhibitor, single point]
CC(=O)c1ccccc1NS(=O)(=O)c1cccc2nsnc12	–	active: 31.6 µM
O=[N+]([O-])c1ccccc1N/N=C1\CC2CC=CC12 (configuration not stated)	–	inconclusive: 2.24 µM [inhibitor, partial curve, poor fit]
CN(C)c1ccc(/C=C/C(=O)c2ccccc2)cc1[N+](=O)[O-]	–	inconclusive: 31.6 µM [inhibitor, partial curve]
O=C(COc1cccc(F)c1)NNC(=O)c1cccc(-n2cccc2)c1	–	inconclusive: 31.6 µM [inhibitor, single point]
CCOC1(OCC)N=C(N)C2(C#N)C(c3ccc(NC(C)=O)cc3)C12C#N (configuration not stated)	inactive: -6.58%	–
CCOC(=O)c1nn(-c2ccc(C)cc2)c(=O)cc1OCC(=O)Nc1cc(C)ccc1OC	–	inconclusive: 0.126 µM [inhibitor, full curve, poor fit]
Cc1c(C(=O)NC(=S)Nc2ccccc2N2CCCC2)cccc1[N+](=O)[O-]	–	inconclusive: 14.1 µM [inhibitor, partial curve]
COc1ccccc1/C=C/C=N/NC(=O)c1ccccn1	–	inconclusive: 2.82 µM [inhibitor, full curve]
S=c1[nH]nc(-c2cc(-c3ccccc3)n[nH]2)n1/N=C/c1ccc(Br)s1	–	inconclusive: 7.08 µM [inhibitor, partial curve]
COc1ccc(N2CCN(CCS(=O)(=O)c3cc(Cl)ccc3Cl)CC2)cc1	inactive: -12.2%	–
Cc1c(C(=O)O)cccc1-c1ccc(C=O)o1	–	inconclusive: 39.8 µM [inhibitor, single point]
COc1ccc(Cc2c(O)nc(SCC(C)C)[nH]c2=O)cc1	inactive: -7.24%	–
CCCCn1c(NCc2ccc3c(c2)OCO3)nc2ccccc21	–	inconclusive: 7.08 µM [inhibitor, single point]
Cc1ccccc1N1C(S)=C(C#N)C(=O)NC1c1ccco1 (configuration not stated)	–	inconclusive: 28.2 µM [inhibitor, single point]
O=C(Nc1ccc(OCC(F)(F)C(F)F)c(C(F)(F)F)c1)c1ccccc1O	–	inconclusive: 6.31 µM [inhibitor, single point]
O=C(CCCN1C(=O)/C(=C/c2ccccc2Cl)SC1=S)Nc1ccccn1	–	inconclusive: 35.5 µM [inhibitor, partial curve]
O=C(Nc1ncn[nH]1)c1ccc(Cl)cc1Cl	–	inconclusive: 0.251 µM [inhibitor, full curve, poor fit]
O=C1NN(c2ccc(F)cc2)C(=O)/C1=C/c1cccs1	inactive: -16.6%	–
CCNC(=O)N1c2ccc(OC)cc2C(C)=CC1(C)C	inactive: -9.87%	–
CC(=O)c1cccc(NC(=O)c2cc(C)no2)c1	–	inconclusive: 3.98 µM [inhibitor, full curve, poor fit]

Compound	activity, negative = inhibition	Potency
CC(OC(=O)c1ccc(S(=O)(=O)NCc2ccco2)cc1)C(=O)Nc1ccc(Cl)cn1 (configuration not stated)	–	inconclusive: 39.8 µM [inhibitor, single point]
Cc1csc(NC(=O)c2cnccn2)n1	inactive: 36.1%	–
O=C(NC1CCCC1)c1ccccc1OCc1ccccc1	inactive: 13.2%	–
Cc1ccc(C)c(/C(O)=C2\C(=O)C(=O)N(Cc3cccnc3)C2c2cccnc2)c1 (configuration not stated)	inactive: -1.97%	–
COc1cc(/C=C2\SC(=S)N(C(Cc3ccccc3)C(=O)O)C2=O)ccc1O (configuration not stated)	inactive: -12.3%	–
COc1cccc(NC(=O)CN(C)C(=O)c2ccc(Cl)c(S(=O)(=O)N3CCCCCC3)c2)c1	inactive: -7.25%	–
COc1ccc(C(=S)N2CCCC2)cc1	–	inconclusive: 10 µM [inhibitor, partial curve]
COc1ccc(C(=O)Nc2cccc3c2CCCC3)cc1OC	inactive: -0.359%	–
O=C(O)c1ccc(COc2c(F)c(F)c(F)c(F)c2F)o1	–	inconclusive: 31.6 µM [inhibitor, single point]
Cn1c(SCC(=O)c2ccc(O)c(O)c2)nnc1-c1cccs1	inactive: -83.3%	–
CCOc1ccc(NC(=S)N(Cc2ccc(N(C)C)cc2)Cc2ccco2)cc1	–	inconclusive: 22.4 µM [inhibitor, partial curve]
NC(=O)c1ccccc1NC(=O)CCCc1ccccc1	inactive: 2.64% [at 2.29 µM]	–
CCN(CC)c1ccc(N=Nc2nn(C)c(C)c2[N+](=O)[O-])cc1	–	inconclusive: 28.2 µM [inhibitor, partial curve]
O=C(Nc1cccc(Cl)c1)N1CCN(C2c3ccccc3-c3ccccc32)CC1	–	inconclusive: 5.62 µM [inhibitor, single point]
C/C(=C\C(=O)c1ccc(Br)cc1)NNC(=O)c1ccc(O)cc1	–	inconclusive: 39.8 µM [inhibitor, single point]
Cc1cc(N2CCN(C/C=C/c3ccccc3)CC2)n2ncnc2n1	inactive: -3.36%	–
O=C(C1=C(c2ccccc2)C(=O)c2ccccc2C1=O)c1ccccc1	–	inconclusive: 39.8 µM [inhibitor, single point]
CCOC(=O)C1=C(O)/C(=C\c2ccc(O)c(OCC)c2)N=C1C	inactive: -4.21%	–
NS(=O)(=O)c1ccc(CNS(=O)(=O)c2cc(C(=O)O)ccc2Cl)cc1	–	inconclusive: 35.5 µM [inhibitor, single point]
CC(=O)c1c(C)[nH]c(C(=O)CN2C(=O)NC(C)(c3ccc(C)cc3)C2=O)c1C (configuration not stated)	–	inconclusive: 0.794 µM [inhibitor, single point]
c1ccc(CN2CCC(Nc3nc(-c4cccs4)nc4ccccc34)CC2)cc1	–	inconclusive: 31.6 µM [inhibitor, single point]
c1ccc2c(-c3nn[nH]n3)cccc2c1	inactive: 12.3%	–
CN1CCC(N(C)S(=O)(=O)c2ccc(NC(=O)c3cccc(C#N)c3)cc2)CC1	–	inconclusive: 20 µM [inhibitor, partial curve]
